We go through 85 compounds from article PMC4336329 (PLoS ONE, 2015).

About 2,200 (0.71%) of roughly 310,000 compounds showed an effect of 50% or more. Effects have a minus sign here. Some of the results follow. Where a SMILES comes first, the peptide text is derived from it. [ ]: non-standard residue; d: D form. The star is where a group is joined. Hyp = O=C(O)[CH]1C[CH](O)CN1; Cbz = O=C(OCc1ccccc1)*; OBn = c1ccc(CO*)cc1

The target in this assay is human ether-à-go-go-related gene (hERG) potassium channel (human, UniProt Q12809). As to the kind of experiment: primary screen, population patch clamp on CHO cells stably expressing hERG.
Chain of human ether-à-go-go-related gene (hERG) potassium channel (Q12809 whole entry, looked up): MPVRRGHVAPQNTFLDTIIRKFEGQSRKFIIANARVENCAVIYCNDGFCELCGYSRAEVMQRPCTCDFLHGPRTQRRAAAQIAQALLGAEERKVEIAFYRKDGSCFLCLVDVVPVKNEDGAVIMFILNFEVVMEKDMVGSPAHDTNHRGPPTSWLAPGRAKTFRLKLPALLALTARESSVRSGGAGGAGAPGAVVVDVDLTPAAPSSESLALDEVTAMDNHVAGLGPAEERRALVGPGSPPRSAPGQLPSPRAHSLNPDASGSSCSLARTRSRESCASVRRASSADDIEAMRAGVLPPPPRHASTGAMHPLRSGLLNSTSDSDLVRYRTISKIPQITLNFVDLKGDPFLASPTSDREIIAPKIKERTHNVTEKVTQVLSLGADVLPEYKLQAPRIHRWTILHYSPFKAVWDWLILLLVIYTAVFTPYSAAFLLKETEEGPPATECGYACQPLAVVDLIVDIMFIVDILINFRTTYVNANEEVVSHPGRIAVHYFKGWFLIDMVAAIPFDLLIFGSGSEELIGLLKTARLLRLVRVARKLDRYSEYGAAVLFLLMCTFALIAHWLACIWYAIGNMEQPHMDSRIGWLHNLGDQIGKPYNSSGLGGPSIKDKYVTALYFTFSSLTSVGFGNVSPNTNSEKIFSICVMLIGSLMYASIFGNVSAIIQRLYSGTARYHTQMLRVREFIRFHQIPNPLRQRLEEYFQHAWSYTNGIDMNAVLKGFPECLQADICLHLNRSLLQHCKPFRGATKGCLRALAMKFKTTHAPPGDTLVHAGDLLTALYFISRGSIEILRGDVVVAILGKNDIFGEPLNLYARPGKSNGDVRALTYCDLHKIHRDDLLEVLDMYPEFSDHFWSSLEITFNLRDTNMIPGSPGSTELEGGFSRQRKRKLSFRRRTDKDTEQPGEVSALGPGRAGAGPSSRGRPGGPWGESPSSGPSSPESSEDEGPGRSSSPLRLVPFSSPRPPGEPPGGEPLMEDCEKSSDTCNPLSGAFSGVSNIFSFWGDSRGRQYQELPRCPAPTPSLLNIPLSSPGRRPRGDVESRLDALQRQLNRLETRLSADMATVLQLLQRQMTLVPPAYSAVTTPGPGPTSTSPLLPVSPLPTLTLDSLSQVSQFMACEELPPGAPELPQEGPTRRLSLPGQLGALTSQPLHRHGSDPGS
Take `CCCCOc1ccc(/C(O)=C2/C(=O)C(=O)N(CCN(C)C)C2c2ccc(O)c(OC)c2)cc1` (stereo not shown): the “hERG current change (%, negative = inhibition) at 1uM” value is reported as 4.79%.
The same measure for `Cc1cc(/C=N\NC(=O)COc2cccc3cccnc23)c(C)n1-c1ccc(Br)cc1`: -10.6%; for `CCOC(=O)C1CCN(C(=O)Cn2cc(C(=O)c3ccco3)c3ccccc32)CC1`: 3.22%.
In the case of `Cc1cc(NC(=O)/C=C/c2ccccc2)no1` it was 17.7%; in that of `CCc1nc2ccccc2c(C(=O)Nc2ccc(F)cc2)c1C`, 9.64%; in that of `CCC(C)NC(=O)CCC(=O)NNc1nc2ccccc2c2nc(C)nn12` (stereo not shown), 11.3%.
The same measure for `O=C(NCC1CCCO1)C1CCCN(S(=O)(=O)c2ccc(F)cc2)C1` (stereo not shown): 14%; for `COc1cc(/C=C2\C(=N)N3N=C(S(C)(=O)=O)SC3=NC2=O)ccc1OCCOc1ccccc1C`: 8.18%; for `Cc1c(F)cccc1NC(=O)c1ccc2c(c1)CCN2S(C)(=O)=O`: 7.21%.
For the compound `Cc1cc(NC(=O)COc2ccc(N(C)S(=O)(=O)c3ccccc3)cc2)no1`, the “hERG current change (%, negative = inhibition) at 1uM” value is reported as 11.4%.
Regarding `COc1cc(CNc2ccc3[nH]c(=O)[nH]c3c2)cc(Br)c1OCc1ccccc1F`, the “hERG current change (%, negative = inhibition) at 1uM” value was found to be 13%.
Take `CCn1cc(C(=O)N[C@@H](CCSC)C(=O)NCCN2CCOCC2)c(=O)c2cc3c(cc21)OCO3`: the “hERG current change (%, negative = inhibition) at 1uM” value amounted to 16.4%.
Take `O=C(OCC(=O)N1N=C(c2ccc(Cl)cc2)CC1c1ccco1)c1ccco1` (stereo not shown): the “hERG current change (%, negative = inhibition) at 1uM” value was 11.1%.
The same measure for `COc1ccccc1-c1cn(S(=O)(=O)c2ccc(C)cc2)nc1N`: 11%.
In the case of `Cc1ccc([N+](=O)[O-])cc1NC(=O)c1ccc(C(C)(C)C)cc1` it was -4.91%; in that of `CCCCn1c(N)c(N(CCOC)C(=O)CSCc2ccc(C)cc2)c(=O)[nH]c1=O`, 12.9%.
The same measure for `COc1ccc(C2=NOC(Cn3nc(C(=O)NCc4ccccc4OC)cc3-c3ccccc3)C2)cc1` (stereo not shown): 2.69%.
Regarding `C=CCSc1nnc(NC(=O)c2cccc(S(=O)(=O)N(C)c3ccccc3)c2)s1`, the “hERG current change (%, negative = inhibition) at 1uM” value is 3.78%.
In the case of `COc1ccc(S(=O)(=O)NCC(c2cccs2)N2CCc3ccccc3C2)cc1` (stereo not shown) it was 4.93%; in that of `Cn1c(CNC(=O)c2ccco2)nnc1SCC(=O)c1ccc(F)cc1`, 11.1%; in that of `Cc1ccc(NC(=O)CCNC(=O)N2C[C@H]3C[C@@H](C2)c2cccc(=O)n2C3)c(C)c1`, 12.1%.
In the case of `Cl.OC(COc1c(F)cc(Br)cc1F)CN1CCc2ccccc2C1` (stereo not shown) it was -29.2%; in that of `COc1ccc(-n2c(SCC(=O)Nc3cc(C)on3)nc3ccccc3c2=O)cc1Cl`, -3.86%; in that of `O=C(O)c1cccc(NS(=O)(=O)c2ccc(Oc3ccc(S(=O)(=O)Nc4cccc(C(=O)O)c4)cc3)cc2)c1`, 12.5%.
The same measure for `COc1ccccc1OCC(=O)Nc1cccc(N(C)S(C)(=O)=O)c1`: -7.38%.
For the compound `O=C(CN1C(=O)C2CC=CCC2C1=O)Nc1nccs1` (stereo not shown), the “hERG current change (%, negative = inhibition) at 1uM” value is given as 5.51%.
In the case of `Cc1ccc(N(CCC#N)C(=O)COC(=O)c2cc(C)no2)cc1` it was 8.57%; in that of `COCCCNC(=O)Cn1cc2c(n1)CCC(C)C2` (stereo not shown), 3.92%; in that of `COc1ccc(C(C)NC(=O)c2ccoc2C)cc1OC` (stereo not shown), 0.354%.
In the case of `Cc1ccccc1C(=O)N1CCC(C(=O)NCc2ccc(Cl)cc2)CC1` it was 12.1%; in that of `N#Cc1c(-c2ccco2)cc(-c2ccccc2)[nH]c1=O`, 10.6%.
The same measure for `CCOC(=O)CSCC(=O)N1CCC(Cc2ccccc2)CC1`: 12.1%.
Take `CSc1ccccc1NC(=S)NC1CCCC1`: the “hERG current change (%, negative = inhibition) at 1uM” value is on record as 4.68%.
The same measure for `O=C(O)CCCCCN1C(=O)CSC1=S`: 3.95%; for `CC1(C)Cc2c(C#N)c(SCCC#N)nc(N3CCOCC3)c2CO1`: 9.53%.
In the case of `OCCN1C2CCC1CC(O)(c1ccc(F)cc1)C2` (stereo not shown), the “hERG current change (%, negative = inhibition) at 1uM” value turned out to be 8.22%.
Regarding `OCc1nc2ccccc2n1/N=C/c1cccs1`, the “hERG current change (%, negative = inhibition) at 1uM” value was found to be 30.6%.
In the case of `Cn1c(SCc2ccccc2)nnc1-c1cnccn1` it was -6.49%; in that of `CC(=O)NC(CC(=O)OCC(=O)c1c(N)n(CC(C)C)c(=O)n(C)c1=O)c1ccccc1` (stereo not shown), 6.02%.
The same measure for `CCOC(=O)c1sc(N=NC2=C(O)CCCC2=O)c(C(=O)OCC)c1C`: 10%; for `O=[N+]([O-])c1cccc(-c2nc(-c3ccccc3)no2)c1`: 9.82%.
Take `O=C(c1ccc2c(=O)n(Cc3ccc4c(c3)OCO4)c(=O)[nH]c2c1)N1CCN(c2ccccc2)CC1`: the “hERG current change (%, negative = inhibition) at 1uM” value was 4.75%.
The same measure for `CCCCCOc1ccc(C(=O)CCC(=O)Nc2ccc(NC(C)=O)cc2)cc1`: 14.2%; for `CCOC(=O)CCC(=O)Nc1ccc(S(=O)(=O)Nc2cc(OC)nc(OC)n2)cc1`: 12.4%.
Regarding `Cc1ccc(-n2c(=O)[nH]c3cc(C(=O)NC4CCN(Cc5ccccc5)CC4)ccc3c2=O)cc1`, the “hERG current change (%, negative = inhibition) at 1uM” value came out at 12.1%.
The same measure for `COc1ccc(-n2nnnc2/C=C/Nc2cc(C(F)(F)F)ccc2OC)cc1`: 14.8%; for `COc1cc(CNc2ncn[nH]2)ccc1OCC(=O)NC(C)(C)C`: 18.6%; for `CC(C)N(Cc1ccccc1)C(=O)COC(=O)c1cnccn1`: 9.98%.
`C1=C(CCNc2ncnc3c2[nH]c2ccccc23)CCCC1`: the “hERG current change (%, negative = inhibition) at 1uM” value is on record as 10.1%.
As to `CS(=O)(=O)N(Cc1nc2sc3c(c2c(=O)[nH]1)CCCC3)C1CCCCC1`, the “hERG current change (%, negative = inhibition) at 1uM” value stood at 6.71%.
The same measure for `CCn1c(C(=O)N2CCC(C(=O)N3CCC4(CC3)OCCO4)CC2)cc2sccc21`: 7.1%.
In the case of `Cc1scc(C(=O)O)c1-c1c(C(=O)O)csc1C` it was 20.4%; in that of `O=C(NCC(=O)N1CC(O)CC1C(=O)N1CCCC1C(=O)OCc1ccccc1)OCc1ccccc1` (stereo not drawn) (Cbz-Gly-[Hyp]-Pro-OBn; configuration not given here), 16.1%.
The same measure for `Cc1ccc2nc(Cl)c(C#N)cc2c1`: 10.8%; for `COC(=O)C(C)Oc1ccc2c(c1)O/C(=C\c1ccco1)C2=O` (stereo not shown): 10.9%.
Consider `COc1ccc(NC(=O)c2c(N)cnn2C)cc1`, for which the “hERG current change (%, negative = inhibition) at 1uM” value is listed as 13.4%.
The same measure for `CC(=O)Nc1ccc(C2(c3ccc(NC(C)=O)cc3)C(=O)Nc3ccccc32)cc1`: 18.4%; for `Brc1ccc(Oc2cc(Br)c(Br)cc2Br)c(Br)c1`: 15.5%; for `CN1CCN(C(=O)C(=O)c2cn(CC(=O)N3CCCC3)c3ccccc23)CC1`: 12.9%.
The same measure for `COc1ccc(-c2cc(C(F)F)n3ncc(C(=O)N4CCN5CCCC5C4)c3n2)cc1` (stereo not shown): 1.97%.
For the compound `CC1C(=O)N(Cc2ccc([N+](=O)[O-])cc2)c2ccccc2N1C(=O)c1c(F)cccc1F` (stereo not shown), the “hERG current change (%, negative = inhibition) at 1uM” value came to 2.61%.
The same measure for `Cc1cc(S(=O)(=O)Nc2ccc3c(c2)COC3=O)ccc1F`: 12.3%; for `O=C(COC(=O)c1ccc2ncsc2c1)Nc1cccc(Cl)c1`: 7.42%; for `O=C(NC1CCCCC1)C(c1ccccn1)N(C(=O)c1csnn1)c1ccccc1F` (stereo not shown): 3.01%.
The same measure for `CC1(C)Cc2c(sc(NC(=O)COc3ccccc3)c2C#N)C(C)(C)N1`: 2.74%; for `CCC1CCC2(CC1)NC(=O)N(CC(=O)c1c(C)[nH]c3ccccc13)C2=O` (stereo not shown): 9.4%; for `COc1ccc(NC(=O)CN(C)C(=O)c2cc(S(=O)(=O)N3CCCCCC3)ccc2OC)cc1`: 1.11%.
The same measure for `Cc1ccc(C)c(-n2c(-c3ccco3)n[nH]c2=S)c1`: 0.801%; for `CCC(C)NC(=O)CN1c2cccc3cccc(c23)S1(=O)=O` (stereo not shown): 11.4%.
With `COC(=O)c1c(-c2ccccc2Cl)noc1-c1cnc(N)nc1C(F)(F)F`, the “hERG current change (%, negative = inhibition) at 1uM” value is 9.46%.
In the case of `N#Cc1c(SCC(=O)O)nc(N2CCOCC2)c2c1CCCC2` it was 0.778%; in that of `O=C1c2ccccc2C(=O)N1CCCCN(C(=O)c1cc2ccccc2oc1=O)c1ccc(Cl)cc1`, 1.63%; in that of `O=[n+]1cc(-c2ccc(Cl)cc2)n([O-])c2c1CCCCC2`, 8.76%.
For `CCCCC(=O)Nc1nc2c(OC)ccc(OC)c2s1`, the “hERG current change (%, negative = inhibition) at 1uM” value was determined as 5.25%.
In the case of `CCOc1ccc(NS(=O)(=O)c2ccc(OCC(=O)NCCCOC)cc2)cc1` it was 3.21%; in that of `COc1cc(OC)c2c(c1)O/C(=C\c1ccccc1)C2=O`, 10.1%.
In the case of `COc1ccc(C(=O)CSC2=NS(=O)(=O)c3cc(Cl)ccc3N2)cc1` it was 15.9%.
As to `CCN(CC1CCCN(CCc2cccc(OC)c2)C1)C(=O)c1ccc(COC)o1` (stereo not shown), the “hERG current change (%, negative = inhibition) at 1uM” value was -51.1%.
For the compound `Cc1csc(=N)n1CC(=O)N1CCc2ccccc21`, the “hERG current change (%, negative = inhibition) at 1uM” value was 6.66%.
As to `CCCOC(=O)c1ccc(Oc2cn[nH]c2-c2ccc(OC)cc2O)cc1`, the “hERG current change (%, negative = inhibition) at 1uM” value worked out at 8.37%.
In the case of `Cc1ccc(N(C)S(=O)(=O)c2cccc(C(=O)NCC(c3cccs3)N3CCOCC3)c2)cc1` (stereo not shown) it was 4.95%.
Consider `CC(C)=C(NC(=O)c1ccco1)C(=O)NCCc1nc2ccccc2[nH]1`, for which the “hERG current change (%, negative = inhibition) at 1uM” value turned out to be 3.26%.
In the case of `CC1CCc2c(sc3nc(CSc4ncn[nH]4)[nH]c(=O)c23)C1` (stereo not shown) it was 8.99%; in that of `CC(C)c1cccc(-c2ccc3c(c2)S(=O)(=O)c2cccc(C(=O)O)c2C3=O)c1`, 8.18%.
The same measure for `CCOC(=O)Cn1nnnc1C(CC)N(Cc1cc2ccc(C)cc2[nH]c1=O)C1CCCC1` (stereo not shown): -1.99%.
